Experimental data: the supplement of paper PMC3334620
Over roughly 33,000 sequences, “E-score (-0.5 to 0.5)” has its median near -0.013; the highest 2% begin near 0.3. This is one part of the list.

What follows are sequences tested against T1, Msn1 (UniProt P22148) (assay: PBM E-score (8-mer binding enrichment) (E-score (-0.5 to 0.5)); higher = stronger / more preferred TF binding; most listed sequences are background and not binding sites). Details: protein concentration: 200 nM; construct: GST-full length.
T1 sequence: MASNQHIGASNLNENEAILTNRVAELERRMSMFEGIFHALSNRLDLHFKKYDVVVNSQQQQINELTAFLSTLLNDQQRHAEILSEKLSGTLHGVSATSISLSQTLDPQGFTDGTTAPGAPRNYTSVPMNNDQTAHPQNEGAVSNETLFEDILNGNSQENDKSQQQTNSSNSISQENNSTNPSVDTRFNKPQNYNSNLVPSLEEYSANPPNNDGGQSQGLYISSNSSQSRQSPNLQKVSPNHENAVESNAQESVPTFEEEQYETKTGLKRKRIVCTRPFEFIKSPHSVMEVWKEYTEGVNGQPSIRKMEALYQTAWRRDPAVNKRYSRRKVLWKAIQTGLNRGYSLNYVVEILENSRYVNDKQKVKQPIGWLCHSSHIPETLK
How it was run: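 Yeast transcription factors, full-length or as DNA-binding domains, were expressed with a GST tag using PURExpress in vitro transcription/translation. At about 100-200 nM they were applied to universal all-10-mer Agilent arrays, double-stranded by primer extension on fresh or once-stripped slides. Fluorescent anti-GST detected bound protein, and masliner normalised the scans. E-scores for ungapped eight-base words, pooled with reverse complements, came from the Universal PBM Analysis Suite.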

Sequence	PBM E-score
AGTACAGC	-0.0323
AGGTCGTA	-0.0523
ACTCCTCA	-0.338
GAGTGCCC	-0.195
GGTTCACA	-0.0395
GGCATACA	-0.09
CCCAGAGC	-0.294
ACAGTCAC	-0.0889
TAAGTTGA	0.0771
ACTTCCCT	-0.185
CAGGCGTA	-0.0831
TAAGCGCA	-0.0951
ACCAATGG	-0.0826
CACCCACC	-0.157
CCCCAGAA	-0.235
ATCCGCGA	0.023
AAGGTATA	0.0465
TATGGCCA	0.00903
AGTCGACA	0.26
CTTAACTC	-0.00904
CGAACTTA	0.0768
ATCGTCTA	0.0246
CGACGTGC	-0.0162
CCTCGAAA	-0.0128
AAGGAGTA	-0.188

Sequence	PBM E-score
AATTGTCG	0.362
ACCAGCAC	-0.108
CCAAGCCG	-0.0418
GGCGATGA	-0.136
CGGCCAGC	-0.116
AGAGCTCT	-0.265
AGCCCGAG	-0.143
ATTTATGG	0.146
CTGCCTAA	-0.0567
GGAACAGA	0.0477
CTCAGGTC	-0.0234
CATGACCC	-0.177
GCCACCAC	-0.247
CTCAACCC	-0.184
CACTTGCC	-0.0233
CGTTTTCC	0.041
CATGTAGC	-0.0387
AAGCGTGC	-0.177
TCTTTGCA	-0.0521
ATGACCCG	-0.0682
GCATACGA	-0.165
CCGCAGAA	0.182
CTCTAACC	-0.244
CAGCTCCG	-0.0775
CTTCTAAC	-0.111

Sequence	PBM E-score
AACTATAA	0.185
TAAGCCTA	0.0536
AATACTCG	0.0121
CTACAAGA	-0.128
CGTCTGTC	0.131
GACATGAA	0.308
CGCTTTCA	0.0815
CGCGCACG	-0.13
AGCCTATG	-0.111
GTTCTCAA	0.123
CGACGCAC	-0.0629
GATGGACC	0.0221
ACTTCGCG	0.0341
ACTACAAG	0.00028
CGTAGCAG	-0.139
GGACTTCA	0.0504
ACTTGGCA	-0.076
CGTTACGA	0.0541
GCATGCGA	-0.0856
GCCGTGAC	0.158
GGTTCTGA	-0.0796
GATTTCAA	0.0797
TGATAAAA	0.0459
ATGATTAG	0.169
ATAGGACG	0.242

Sequence	PBM E-score
GGCTACCA	0.0403
AGCCACCT	-0.261
AATCAAGA	0.115
TAAAAGTA	0.188
ATGGCCCA	-0.0235
CCCCTCCC	-0.221
GGAGATAC	-0.225
CGTGACAA	0.309
CTTCCCGA	0.0228
ATCTTGAG	0.0323
GGGACGAA	0.187
CAGGGCGA	-0.121
AACGCATT	0.0662
ACTGACCG	-0.11
CATCTTGA	0.0629
ACGTAACC	-0.0178
GGACATTA	0.489
GGATGGTA	0.00466
CAATGATG	0.0709
CCCGGTGA	-0.239
ATCGACTC	-0.189
AGTCATCA	-0.129
AGCCCAAC	-0.172
CGTCGCAG	0.0259
ACCCGGAG	0.177

Sequence	PBM E-score
GAGGATTA	-0.0843
GCCGACAC	-0.0139
GAACTTGC	-0.0482
CTTCGATA	-0.00326
GGCAGTAA	0.057
GCAGCACA	-0.014
ACTGTAAA	0.182
AAACCAAA	0.0684
ATGGGTAG	-0.0205
CATAAGAC	0.127
TGACCGAA	-0.0832
AGGCTAAT	-0.0128
CACGCTTA	0.0573
AATGCTGT	0.102
GCCTGCCA	-0.106
CATGTACC	0.186
AGTGTGCC	-0.0965
CGGGGGTA	-0.132
CCCGAAAA	0.0898
GTCAACAA	0.0142
AGCCAGCC	-0.24
AAATAGTA	0.172
ACTGTCTG	0.079
CCAAAACC	-0.0194
CCAGCGAA	-0.131

Sequence	PBM E-score
CAGGTGAA	0.0265
CAGATCCA	-0.00698
CTATCGAG	-0.0768
CCGTACTC	-0.0838
GGTCACCA	-0.141
GCCGCCTA	-0.173
AGTTATCG	0.0754
AAGCTAAT	0.219
CGTGGGGC	-0.306
ACCAACAT	0.176
CTGTGTAC	0.197
CTGAGAAC	-0.0397
CAAATGTC	0.471
TCATTTCA	0.0279
ATTGGCGC	-0.0295
CTGGGAAG	-0.178
AAAGGGCC	-0.377
CACTCGAC	0.0548
CGGCATTC	-0.0374
GGGGTATA	-0.0556
AGCCCACA	-0.248
ACATGGAC	0.326
ATGCACCC	-0.084
CTTCTGAA	0.0733
CCGCGACG	0.114

Sequence	PBM E-score
ACATGGCG	-0.0945
AAGTTAAA	0.108
ATAGGTAG	-0.0873
GCTTGCAA	-0.0398
TAATCTCA	-0.133
ACGGGCTA	-0.135
ACGATAAG	0.0245
AATTCTAC	0.114
CGGGACGA	0.115
ACTTAAGC	-0.0761
AAAAAGAG	-0.0517
GCGAATAA	0.152
AGACCGAG	0.0557
AAGTCCAG	0.244
CCAGGGCC	-0.337
GGAATGGA	0.0954
TAGAGCGA	-0.0106
GGGTGTCA	-0.0869
AGAGTTTG	0.0601
TACGCCTA	-0.077
CGTCACCA	-0.00976
AAACCTGC	-0.0481
